Data taken from paper PMC4336329 (PLoS ONE, 2015).
In all, about 310,000 compounds went through this assay and about 14,000 (4.5%) showed an effect of 50% or more. The effect is printed as a negative number. The list shows a part of the results.

The compounds below were run against human ether-à-go-go-related gene (hERG) potassium channel (human, UniProt Q12809) (assay: primary screen, population patch clamp on CHO cells stably expressing hERG).
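Further: peak tail current of the secondary pulse compared with the same well before compound.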

Sequence of human ether-à-go-go-related gene (hERG) potassium channel (Q12809 whole entry, looked up): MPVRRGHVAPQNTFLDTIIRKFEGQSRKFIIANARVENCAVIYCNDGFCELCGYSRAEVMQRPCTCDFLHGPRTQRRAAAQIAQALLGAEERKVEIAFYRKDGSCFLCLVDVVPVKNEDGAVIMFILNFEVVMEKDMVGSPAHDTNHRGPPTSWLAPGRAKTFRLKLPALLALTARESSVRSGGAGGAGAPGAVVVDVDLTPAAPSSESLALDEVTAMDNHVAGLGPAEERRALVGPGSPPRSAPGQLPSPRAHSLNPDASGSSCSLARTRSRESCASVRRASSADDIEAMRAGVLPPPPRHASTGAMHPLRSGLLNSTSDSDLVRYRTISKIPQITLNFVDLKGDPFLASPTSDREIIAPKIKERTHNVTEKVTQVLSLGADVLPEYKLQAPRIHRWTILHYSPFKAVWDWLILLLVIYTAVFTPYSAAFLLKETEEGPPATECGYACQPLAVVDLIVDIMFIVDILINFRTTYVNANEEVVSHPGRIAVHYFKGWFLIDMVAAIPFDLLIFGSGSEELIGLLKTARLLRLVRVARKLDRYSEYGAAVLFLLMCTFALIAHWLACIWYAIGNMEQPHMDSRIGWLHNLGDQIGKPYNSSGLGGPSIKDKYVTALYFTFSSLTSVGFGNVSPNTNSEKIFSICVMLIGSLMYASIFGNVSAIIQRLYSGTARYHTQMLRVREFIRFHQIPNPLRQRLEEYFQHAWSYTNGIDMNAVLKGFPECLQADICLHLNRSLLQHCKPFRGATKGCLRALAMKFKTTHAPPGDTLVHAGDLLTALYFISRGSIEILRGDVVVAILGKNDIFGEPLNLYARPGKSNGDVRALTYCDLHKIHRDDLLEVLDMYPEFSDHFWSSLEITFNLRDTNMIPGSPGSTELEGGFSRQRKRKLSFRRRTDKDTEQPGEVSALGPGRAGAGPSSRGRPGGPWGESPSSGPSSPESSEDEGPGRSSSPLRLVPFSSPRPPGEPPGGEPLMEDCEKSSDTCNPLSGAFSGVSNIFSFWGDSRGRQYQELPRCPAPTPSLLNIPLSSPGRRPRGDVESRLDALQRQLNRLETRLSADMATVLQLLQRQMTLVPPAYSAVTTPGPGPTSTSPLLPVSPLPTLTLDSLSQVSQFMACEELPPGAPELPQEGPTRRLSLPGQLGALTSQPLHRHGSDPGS

| SMILES | hERG current change (%, negative = inhibition) at 10uM |
| --- | --- |
| CN(Cc1ccccc1Cl)C(=O)c1cc2ccccc2o1 | -2.37% |
| CCOC(=O)/C=C1\SCC(=O)N1CC(=O)Nc1ccc2c(c1)CCC2 | 3.3% |
| O=c1[nH]c2ccc(Cl)cc2c(-c2ccccc2)c1N1CCOCC1 | 2.46% |
| CN(c1ccccc1)S(=O)(=O)c1cccc(C(=O)NCc2ccccc2CN2CCCC2)c1 | -74.6% |
| COc1ccccc1C(CNC(=O)c1ccc(NS(=O)(=O)c2ccc3c(c2)OCCO3)cc1)N(C)C (stereo not drawn) | -25.7% |
| C/C=C(\C)c1nnc(NC(=O)c2ccco2)s1 | 1.95% |
| Cc1nc(SCC(=O)Nc2c(C)n(C)n(-c3ccccc3)c2=O)[nH]c(=O)c1Cc1ccccc1 | 6.03% |
| Cn1cccc1/C=N/NC(=O)Cc1ccccc1 | 18.5% |
| Cc1ccc(C(=O)C2=C(O)C(=O)N(Cc3ccco3)C2c2cccc(Cl)c2)o1 (stereo not drawn) | 0.92% |
| O=C(COC(=O)/C=C/c1ccc(OC(F)F)cc1)NC1CCCC1 | 0.985% |
| Nc1cc(=O)[nH]c(SCC(=O)NC2CCCc3ccccc32)n1 (stereo not drawn) | 0.0692% |
| CC(O)CNCCNCc1c(OCc2ccccc2)ccc2ccccc12.Cl (stereo not drawn) | -34.6% |
| CCOC(=O)NC1(C(F)(F)F)N=C(c2ccccc2)NC1=O (stereo not drawn) | 4.77% |
| O=C(COc1ccc(F)cc1)Nc1ccc(-n2cnnn2)cc1 | -49.5% |
| O=C(COc1ccccc1)Nc1ccc(S(=O)(=O)N2CCCC2)cc1 | -11.8% |
| COc1ccccc1CNC(=O)c1[nH]c(C)c(C(C)=O)c1C | 10.2% |
| COc1ccccc1CNC(=O)CCNS(=O)(=O)c1ccc2c(c1)CC(C)N2C(C)=O (stereo not drawn) | 17.5% |
| COc1ccc(-c2ccc(-c3nc4ccc(C)cn4c3NC3CCCCC3)cc2OC)cc1.O=C(O)C(F)(F)F | 4.84% |
| O=C1C=C(O)CC(c2ccc(Cl)c(Cl)c2)C1 (stereo not drawn) | -40.3% |

| SMILES | hERG current change (%, negative = inhibition) at 10uM |
| --- | --- |
| N/C(=N\OC(=O)CCCN1C(=O)c2ccccc2C1=O)c1ccccn1 | 5.36% |
| CC(=O)N1CCc2cc(S(=O)(=O)CCC(=O)N3CCC(C)CC3)ccc21 | 15.5% |
| CCCc1nnc(SCC(=O)O)n1CC | -2.32% |
| CN(C)CCCN(C(=O)c1ccc(S(=O)(=O)N2CCOCC2)cc1)c1nc2cc3c(cc2s1)OCO3.Cl | -61.4% |
| Cc1cc(C(=O)NNC(=O)c2cccc(C(F)(F)F)c2)no1 | 13.6% |
| Cn1nnnc1SCc1nc2scc(-c3ccccc3)c2c(=O)[nH]1 | -3.59% |
| CC1CC(=O)C2=C(C1)Nc1nc3ccccc3n1C2c1cccnc1 (stereo not drawn) | 4.17% |
| CC(Oc1cc2oc(=O)c3c(c2cc1Cl)CCCC3)C(=O)NCC1CCC(C(=O)O)CC1 (stereo not drawn) | 12.6% |
| CN(C)c1ccc(/C=C(\NC(=O)c2ccccc2)C(=O)NCCCn2ccnc2)cc1 | -9.78% |
| COc1ccccc1C(=O)Nc1ccccc1SC | -20.3% |
| Cc1ccc(OC(=O)c2sc(Cl)nc2C)cc1C | -13% |
| CCOC(=O)C1=C(COC(=O)/C=C/c2ccc(OCC)c(OC)c2)NC(=O)NC1C (stereo not drawn) | -20.6% |
| N#Cc1cn(CC(=O)NCCc2c[nH]c3ccccc23)c2ccccc12 | 10.6% |
| Cc1ccc(-c2nc(CN(C)C(C3CC3)C3CC3)c(C)o2)cc1 | -56.6% |
| O=C(Nc1cccc(C(F)(F)F)c1)C1(c2ccccc2)CC1 | -9.24% |
| Cc1ccccc1CC(=O)NCc1cccnc1 | 10.8% |
| CCOC(=O)/C(=N\Nc1ccccc1Cl)N1CC(C)OC(C)C1 (stereo not drawn) | 13.5% |
| CN(C)c1ccc(NC(=O)CCN2CCN(c3ccccn3)CC2)cc1 | -5.55% |
| Cc1ccc(NS(=O)(=O)c2ccc(-n3cccn3)cc2)c(C)c1 | 22.8% |

| SMILES | hERG current change (%, negative = inhibition) at 10uM |
| --- | --- |
| CC(=O)Nc1ccc(NC(=O)C2CCN(S(=O)(=O)c3ccc4c(c3)OCCO4)CC2)cc1 | 11.6% |
| O=C(CSc1nc2[nH]ncc2c(=O)[nH]1)Nc1ccc(Cl)cc1 | 4.56% |
| O=C(Nc1c(F)cc(F)cc1Br)c1cc(-c2ccccc2)on1 | 18% |
| Cc1ccccc1OCC(=O)Nc1nnc(-c2ccco2)s1 | -11.2% |
| Cc1cc(NC(=O)CCC(=O)N(Cc2ccccc2)C2(C(=O)NC3CCCCC3)CCCC2)no1 | 21.1% |
| O=C(CCC1CCCN(C(=O)c2ccoc2)C1)NCc1ccc(F)c(F)c1 (stereo not drawn) | -15.6% |
| CCCOc1ccc(C(=O)NNC(=S)NC(=O)c2ccco2)cc1 | 23.4% |
| CC1Cc2ccccc2N1C(=O)/C=C/c1cccc(F)c1 (stereo not drawn) | -7.78% |
| COc1ccc(CN2CCCCC2c2cccnc2)cc1C (stereo not drawn) | 0.438% |
| C=CCOc1ccc(C=Nc2ccc(C)c(Cl)c2)c(O)c1 | -2.2% |
| COc1ccc(NC(=O)Cc2ccccc2F)cn1 | -9.53% |
| CCN(CC)CCCNc1nc(N)c([N+](=O)[O-])c(N2CCCCCC2)n1 | -30.3% |
| CC(=O)Nc1ccc(NC(=O)CCNS(=O)(=O)c2cccc3nsnc23)cc1 | 18.6% |
| COc1cccc(CNc2ccc([N+](=O)[O-])cc2C)c1 | -4.84% |
| CC1(C)CC(=O)C2=C(C1)N=C1SCCC(=O)N1C2c1ccccc1 (stereo not drawn) | 4.24% |
| CC1CCCN(CCCOc2ccc(Br)cc2Cl)C1.O=C(O)C(=O)O (stereo not drawn) | -78.4% |
| Cc1cc(C)[n+](-c2ccc(C(C)C)cc2)c2[nH]c(=O)[nH]c(=O)c12.[I-] | 4.71% |
| CCOC(=O)C1CCCCN1S(=O)(=O)c1cc2c(cc1C)NC(=O)CO2 (stereo not drawn) | -19.8% |
| COc1cccc(C(=O)NCCS(=O)(=O)N2CCN(C(=O)c3ccco3)CC2)c1 | -28.6% |
